Screen size: about 360,000 compounds; about 11,000 (3.1%) were called active. The inconclusive results got no clear call from the source; some entries with a clear call stand among them for comparison. The call rests on the fitted dose curve; in most records, active means well fitted inhibition curve with a large enough effect; inconclusive means small, poorly fitted or top-dose-only effect; inactive means no such curve, though single readings can be large or run the other way. No potency is given beside an inconclusive call; the fits are too rough.
These compounds were tested against Schistosoma mansoni thioredoxin glutathione reductase (TGR) (UniProt Q962Y6) (assay: qHTS Assay for the Inhibitors of Schistosoma Mansoni Peroxiredoxins). Details: purified TGR, DTNB reduction, TNB absorbance 405 nm; activity change, negative = inhibition: at 114 µM (top of the series) unless noted.
Procedure, shortened: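 Kinetic colorimetric format: TGR-catalysed, NADPH-driven DTNB reduction monitored via TNB absorbance. Enzyme dispensed at 20 nM; compound exposure 15 min at room temperature before reaction start.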
In the case of `O=C(Nc1ccc(C#Cc2ccccc2)cc1)C1CC1`, the “activity change, negative = inhibition” value is reported as inactive: -3.4%. For `CN(CC(=O)NCc1ccco1)S(=O)(=O)c1cccc2cccnc12`, the Potency was active: 20 µM. For `CCOC(=O)Cn1c(C)c(C#N)c2ccccc21`, the “activity change, negative = inhibition” value was inactive: 8.54%. With `O=C(COC(=O)CC12CC3CC(CC(C3)C1)C2)Nc1cccnc1Cl` the “activity change, negative = inhibition” value was inactive: -1.39%. For `CC1(C(=O)Nc2cccc3ccccc23)CC1(Br)Br` (stereo not given), the Potency was inconclusive [inhibitor, partial curve]. With `CC1N=C2c3ccccc3N=C(SCC(=O)NCCc3ccccc3)N2C1=O` (stereo not given) the “activity change, negative = inhibition” value was inactive: 6.07%. In the case of `O=C(O)c1ccc2c(c1)C1C(Cl)C(Sc3ccccc3[N+](=O)[O-])CC1C(c1cccc([N+](=O)[O-])c1)N2` (stereo not given), the Potency is reported as inconclusive [inhibitor, partial curve]. `CCOC(=O)Cc1csc(NC(=O)c2cccs2)n1` was tested, and the “activity change, negative = inhibition” value was inactive: -24.6%. In the case of `Cc1ccc(NC(=O)CCCC(=O)O)c(Br)c1`, the “activity change, negative = inhibition” value is reported as inactive: 1.56%. With `COc1ccc(C(=O)NNC(=O)C2CCCN(C3CC(=O)N(c4ccccc4)C3=O)C2)cc1` (stereo not given) the Potency was active: 44.7 µM. In the case of `C#CCOCCOCCOCCNc1nc(N2CCN(C(=O)C([C@@H](C)CC)n3cc(C(N)CO)nn3)CC2)nc(N2CCN(C(=O)[C@H](CCC(=O)O)n3cc(C(N)Cc4ccc(O)cc4)nn3)CC2)n1` (stereo not given in full), the Potency is reported as inconclusive [inhibitor, partial curve]. In the case of `C/C(=N\NC(=O)c1ccncc1)c1cc2ccccc2oc1=O`, the Potency is reported as inconclusive [inhibitor, full curve]. For `Oc1ccc(-c2csc(Nc3ccccn3)n2)cc1O`, the Potency was inconclusive [inhibitor, partial curve]. For `O=c1[nH]c(=S)[nH]c(O)c1N=Nc1ccc(OC(F)F)cc1`, the Potency was inconclusive [inhibitor, single point]. For `COc1cccc(C(C2=C(O)CC(C)(C)CC2=O)C2C(=O)CC(C)(C)CC2=O)c1` (stereo not given), the Potency was inconclusive [inhibitor, partial curve]. For `Cc1ccc(-n2nc3c(=O)n(C(C)C(=O)NCc4ccco4)nc(C)c3c2C)cc1` (stereo not given), the Potency was inconclusive [inhibitor, single point]. With `Cc1cccc(C(=O)NC2CCN(C(=O)N3CCOCC3)CC2)c1` the Potency was inconclusive [inhibitor, partial curve]. For `Cc1nc2ccc(NC(=S)NCCCO)cc2nc1C`, the Potency was inconclusive [inhibitor, partial curve]. In the case of `COc1ccc(CC(=O)NCc2ccco2)cc1OC`, the Potency is reported as inconclusive [inhibitor, partial curve]. In the case of `COc1cc(C(=O)N2CCN(CCc3ccccn3)CC2)cc(OC)c1OC`, the Potency is reported as inconclusive [inhibitor, single point]. `Cc1nn(-c2ccccc2)c2[nH]c(=O)c(CNCc3ccc4c(c3)OCO4)cc12` was tested, and the Potency was inconclusive [inhibitor, partial curve]. With `COCCN1CCN(c2c3c(nc4cc(-c5cccc(F)c5)nn24)CCC3)CC1` the “activity change, negative = inhibition” value was inactive: -1.67%. For `O=C(NCc1cccnc1)c1ccc(-c2cc(Cl)ccc2Cl)o1`, the Potency was active: 39.8 µM. In the case of `Nc1cccnc1Sc1cc(Cl)c(Cl)cc1Cl`, the Potency is reported as inconclusive [inhibitor, single point]. `CC1=CC(C)(C)N2C(=O)C3(C(C#N)=C(N)OC4=C3C(=O)CCC4)c3c(C)c(C)cc1c32` (stereo not given) was tested, and the Potency was inconclusive [inhibitor, single point]. In the case of `Cc1ccc2[nH]c(=O)c(C(c3nnnn3CC3CCCO3)N3CCc4ccccc4C3)cc2c1` (stereo not given), the Potency is reported as active: 25.1 µM. In the case of `CSc1nnc(NC(=O)c2nc(S(=O)(=O)Cc3ccccc3)ncc2Cl)s1`, the Potency is reported as active: 12.6 µM. In the case of `O=C(COC(=O)Cn1cnc2ccccc21)Nc1ccc2c(c1)C(=O)c1ccccc1C2=O`, the “activity change, negative = inhibition” value is reported as inactive: 4.19%. With `CCCC(=Nc1ccc(N)cc1)C1=C(O)C(C(=O)OC)C(C)(C)CC1=O` (stereo not given) the Potency was inconclusive [inhibitor, full curve, poor fit]. `O=C(Nc1nc2ccc(F)cc2s1)c1nc(S(=O)(=O)Cc2ccccc2)ncc1Cl` was tested, and the Potency was inconclusive [inhibitor, full curve]. In the case of `Cc1cccc(N=Cc2[nH]c3ccc(Br)c(Cl)c3c2O)c1`, the Potency is reported as inconclusive [inhibitor, partial curve]. With `O=C(c1ccc(S(=O)(=O)c2ccccc2Cl)c([N+](=O)[O-])c1)N1CCN(Cc2ccccc2)CC1` the Potency was inconclusive [inhibitor, partial curve]. In the case of `Cc1ccc2nc(NC(=O)CSCC(=O)OCC(=O)c3ccccc3)sc2c1`, the Potency is reported as inconclusive [inhibitor, partial curve]. In the case of `CC(=O)c1ccccc1NC(=O)COC(=O)/C(=C/c1ccccc1)n1nnnc1C`, the Potency is reported as inconclusive [inhibitor, full curve]. For `C[n+]1cccc(/C=N/Nc2nc(Cl)c(C#N)c(Cl)c2Cl)c1`, the Potency was inconclusive [inhibitor, full curve]. `COc1ccc(C(=O)NC(=S)Nc2cccc3nc(C)ccc23)cc1OC` was tested, and the Potency was inconclusive [inhibitor, full curve, poor fit]. In the case of `COc1cccc(-c2nn(-c3ccc(F)cc3)cc2C(=O)NCC2CCCO2)c1` (stereo not given), the “activity change, negative = inhibition” value is reported as inactive: -3.18%. `CC1(c2ccccc2)CC(c2ccccc2)=Nc2ccccc2N1` (stereo not given) was tested, and the Potency was inconclusive [inhibitor, partial curve]. For `CCCn1c(=O)c2sccc2n2c(CCCC(=O)NCc3ccco3)nnc12`, the Potency was inconclusive [inhibitor, partial curve]. For `COc1ccc(-c2ccc(CCC(=O)O)n2-c2ccccc2OC)cc1`, the Potency was active: 11.2 µM. For `COc1ccc(Cl)cc1NC(=O)Cn1cccc1`, the Potency was inconclusive [inhibitor, partial curve]. With `CCOC(=O)c1ccccc1NC(=O)c1sc2nc3n(c(=O)c2c1C)CCCC3` the Potency was active: 44.7 µM. With `O=C(O)CCc1ccc(-c2ccc(F)cc2)n1CCC(=O)O` the Potency was active: 14.1 µM. `CC1CC(NC2=NCCS2)CC(C)(C)C1` (stereo not given) was tested, and the “activity change, negative = inhibition” value was inactive: 0.262%. With `CC(C)(C)C(=O)Nc1nnc(SCC(=O)NCc2ccco2)s1` the Potency was inconclusive [inhibitor, partial curve].

— PubChem BioAssay AID485364 (National Center for Advancing Translational Sciences (NCATS), 2010)
Further: nearly all actives have a fitted effect of over 60% in size.
On the % scale 0 is the no-effect control and ±100 the full control effect; potency means the concentration at half of the fitted maximal effect; tags describe the fitted curve by direction and shape.
